According to patent publication US20250270306A1 (OSPEDALE SAN RAFFAELE S R L, published 2025):

Target: T1, Recombinant human IGFBP3 (human, UniProt P17936)
T1 construct: also called rhIGFBP3; hIGFBP-3
Assay: competitive ELISA: plate coated with rhIGFBP3 4 µg/ml; ecto-TMEM219 10 µg/ml added with the antibody (10 µg/ml per paragraph 174); detection anti-HisTag HRP; blocked ligand: ecto-TMEM219
Protocol: FIG. 5. IGFBP3-Ecto-TMEM219 binding in the presence of newly generated anti-IGFBP3 mAbs (n=11, YU139 antibodies) or Ecto-TMEM219 alone or monoclonal anti-IGFBP3 commercially available (LSBIO LS-C45037/clone 83.8F9, mAnti-IGFBP3) tested by using a competitive ELISA screening assay. In this assay, the microtiter plate was coated with rhlGFBP3, and labeled ecto-TMEM219 added. Each candidate monoclonal antibody was added and its ability to displace ecto-TMEM219 was assessed by measuring Absorbance after the plate was washed. Boxed are anti-IGFBP3 antibodies able to achieve the highest reduction in Ecto-TMEM219 signal (1-way ANOVA, p<0.00001).
Microplate was coated with 50 μl/well of 4 μg/ml rhlGFBP3 dissolved in PBS or PBS alone (no coating). Plate was incubated 90 minutes at 37° C. and washed with PBS (300 μl/well) and incubated with the blocking reagent (200 μl/well) 2 hours at room temperature. Samples were then diluted in the diluent solution (50 μl/well) and added to the plate as follows: diluent solution (none), ecto-TMEM 10 μg/ml, ecto-TMEM 10 μg/ml+anti-IGFBP3 mAbs 10 μg/ml, anti-IGFBP3 mAbs 10 μg/ml alone. After washing steps, plate was then incubated at room temperature for 1 hour with anti 6×His tag HRP diluted 1:2000 in Diluent solution (50 μl/well). ELISA plate was then read after adding visualization solution at ELISAreader and adsorbance was measured.

T1 sequence (P17936 28-291 limits assumed): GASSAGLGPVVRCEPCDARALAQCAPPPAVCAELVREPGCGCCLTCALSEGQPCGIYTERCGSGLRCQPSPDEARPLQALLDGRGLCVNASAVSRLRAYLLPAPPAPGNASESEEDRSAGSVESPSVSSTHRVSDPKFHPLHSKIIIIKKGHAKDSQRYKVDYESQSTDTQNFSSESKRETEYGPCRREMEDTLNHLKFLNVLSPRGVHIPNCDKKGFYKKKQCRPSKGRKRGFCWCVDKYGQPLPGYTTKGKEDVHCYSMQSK

- binding result: binds
B1: YU139-C02 (Fc fusion)
VH: EVQLVQSGAEVKKPGASVKVSCKASGYTFTSYGISWVRQAPGQGLEWMGWISAYNGNTNYAQKLQGRVTMTTDTSTSTAYMELRSLRSDDTAVYYCARVPSEYYDFWSGYYTEENAFDIWGQGTMVTVSS
VL: [… about 100 residues …]TFGQGTKVEIK
